The text below walks through data of paper PMC6919601, “Identification of Plasmodium dipeptidyl aminopeptidase allosteric inhibitors by high throughput screening” (PLoS ONE, 2019).

About 230 (0.21%) of roughly 110,000 compounds showed an effect of 50% or more. This is one part of the list.
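Further: 30 min substrate incubation versus DMSO and 10 µM JCP410 controls.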

Sequence of DPAP1 (Q8IIJ9 whole entry, looked up): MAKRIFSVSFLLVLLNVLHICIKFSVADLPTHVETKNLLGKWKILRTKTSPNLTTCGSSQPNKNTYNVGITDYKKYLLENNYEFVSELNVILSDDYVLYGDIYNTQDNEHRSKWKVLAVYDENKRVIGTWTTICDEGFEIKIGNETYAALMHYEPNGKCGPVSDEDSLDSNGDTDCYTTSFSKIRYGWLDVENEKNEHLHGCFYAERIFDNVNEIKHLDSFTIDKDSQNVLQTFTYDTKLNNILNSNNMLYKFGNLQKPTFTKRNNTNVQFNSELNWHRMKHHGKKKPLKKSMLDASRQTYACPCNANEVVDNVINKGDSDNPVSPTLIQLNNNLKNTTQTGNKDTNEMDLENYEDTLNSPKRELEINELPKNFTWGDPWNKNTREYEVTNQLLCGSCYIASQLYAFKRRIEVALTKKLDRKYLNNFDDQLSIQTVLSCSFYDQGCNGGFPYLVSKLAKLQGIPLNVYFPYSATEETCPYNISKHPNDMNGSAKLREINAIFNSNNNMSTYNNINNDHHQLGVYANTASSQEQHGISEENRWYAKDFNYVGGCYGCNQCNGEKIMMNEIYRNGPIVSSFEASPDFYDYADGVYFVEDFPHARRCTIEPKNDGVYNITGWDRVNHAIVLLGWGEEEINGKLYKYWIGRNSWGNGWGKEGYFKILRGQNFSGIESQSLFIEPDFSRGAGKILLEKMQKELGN

This assay addresses DPAP1 (Plasmodium falciparum, UniProt Q8IIJ9). Description: primary screen, percent inhibition; read by cleavage of a fluorogenic dipeptide substrate; higher = more effect of the substance. Further details: species or system P. falciparum D10 trophozoite lysates; single well.
Consider `CN1CCN(c2nc(-c3ccc(C(=O)NC4(C(=O)N[C@@H]5C(=O)N[C@@H]5Oc5ccccc5)CCCCC4)cc3)cs2)CC1`, for which the “% Inhibition @ 10 uM” value is -4.72%.

On to `c1nc(N2CCCC2)c2sc3nc(N4CCCCC4)c4c(c3c2n1)CCCC4`, for which the “% Inhibition @ 10 uM” value was -1.33%.

Turning to `Cn1c(=O)c2c(nc3n2CCS3)n(C)c1=O`, the “% Inhibition @ 10 uM” value was -0.946%.

Take `CCOC(=O)c1c(-c2ccccc2)csc1NC(=O)c1cc(-c2ccc3c(c2)OCO3)on1`: the “% Inhibition @ 10 uM” value amounted to 7.9%.

As for `COc1ccccc1/C=C1/C(=O)ON=C1C`, the “% Inhibition @ 10 uM” value is listed as 3.47%.

For `Cc1cc(-c2ccc(C)o2)c(C#N)c(S)n1`, the “% Inhibition @ 10 uM” value stood at 39.9%.

Consider `COc1ccc(C2=CC(c3ccc(F)c(Br)c3)n3nnnc3N2)cc1` (stereo not drawn), for which the “% Inhibition @ 10 uM” value amounted to 1.73%.

On to `Cc1cc(C)cc(NS(=O)(=O)c2ccc(NC(=O)Nc3ccccc3)cc2)c1`, for which the “% Inhibition @ 10 uM” value is 4.11%.

Consider `CCOC(=O)N1CCC(N2Cc3cccc(C(=O)N4CC(C)CC(C)C4)c3C2=O)CC1` (stereo not drawn), for which the “% Inhibition @ 10 uM” value was found to be 1.23%.

Turning to `Cc1ccccc1CN1CCCC(O)C1` (stereo not drawn), the “% Inhibition @ 10 uM” value worked out at 3.84%.

As to `C=CCN1C(=O)N/C(=C/c2cc(Br)c(OCC(=O)O)c(OC)c2)C1=O`, the “% Inhibition @ 10 uM” value is listed as -8.26%.

Take `O=C(Cn1nnc2ccccc21)NCc1ccccc1`: the “% Inhibition @ 10 uM” value was 3.87%.

Consider `CC(=O)Nc1ccc(-n2cc(C(C)=O)c(=O)[nH]c2=O)cc1`, for which the “% Inhibition @ 10 uM” value is given as 2.09%.

For the molecule `O=C1OC(c2cccc(F)c2)=N/C1=C\c1cccc2ccccc12`, the “% Inhibition @ 10 uM” value was determined as 1.25%.

For `COC(=O)c1ccc(OCC(=O)c2c(O)cc(O)cc2O)cc1`, the “% Inhibition @ 10 uM” value is reported as -9.55%.

With `O=C(CN1C(=O)CSc2ncccc21)NC1CCN(Cc2ccccc2)CC1`, the “% Inhibition @ 10 uM” value is 1.03%.

Take `COc1nccc(Nc2ccccc2)c1C#N`: the “% Inhibition @ 10 uM” value is listed as 1.9%.

As to `Fc1ccccc1OCCCN1CCCCC1`, the “% Inhibition @ 10 uM” value is given as -1.05%.

Consider `CCOc1ccc(CCNC(=O)C2CCCN(c3ncnc4c3nc3n4CCCCC3)C2)cc1` (stereo not drawn), for which the “% Inhibition @ 10 uM” value stood at 7.2%.

Consider `CP(=O)(O)C(c1ccccc1)C(F)(F)C(F)(F)C(F)(F)F` (stereo not drawn), for which the “% Inhibition @ 10 uM” value came out at 4.1%.

Take `O=C1/C(=C/c2ccc(O)cc2)Sc2ccccc21`: the “% Inhibition @ 10 uM” value was -1.03%.

As for `CCc1nnc(NC(=O)C2CCCN(c3ncnc4onc(C)c34)C2)s1` (stereo not drawn), the “% Inhibition @ 10 uM” value is listed as 3.7%.

Consider `COc1ccc(CCNC(=O)CSc2nnc(-c3ccco3)c(-c3ccco3)n2)cc1OC`, for which the “% Inhibition @ 10 uM” value is on record as -0.386%.

Turning to `COC(=O)c1sccc1NC(=S)N1CCN(Cc2ccccc2)CC1`, the “% Inhibition @ 10 uM” value is recorded as -3.48%.

On to `CC1=C(C(=O)Nc2ccccc2C)C(c2cccs2)n2c(s/c(=C/c3cnn(C)c3C)c2=O)=N1` (stereo not drawn), for which the “% Inhibition @ 10 uM” value is recorded as -1.79%.

In the case of `CC1(C)C(C(=O)Nc2ccc(Br)cc2)C1(C)C`, the “% Inhibition @ 10 uM” value is recorded as -0.13%.

Take `O=C(/C=C/c1ccc(Br)cc1)N1CCN(c2ccc([N+](=O)[O-])cc2)CC1`: the “% Inhibition @ 10 uM” value was found to be 5.31%.

On to `Cc1c2cnn(CC(=O)N3CCN(C4CCCCC4)CC3)c(=O)c2c(C)n1Cc1ccccc1`, for which the “% Inhibition @ 10 uM” value stood at 2.84%.

Regarding `CC1CC(C)(C)NC(=S)N1CC(=O)NC(c1ccccc1)c1ccccc1` (stereo not drawn), the “% Inhibition @ 10 uM” value was -8.38%.

As for `CCC(C)N(CCNS(=O)(=O)c1cc(-c2cc(C)no2)ccc1C)Cc1cccs1` (stereo not drawn), the “% Inhibition @ 10 uM” value is 4.06%.

Regarding `COc1cccc(/C=C2\N=C(c3cccc(OC)c3)OC2=O)c1`, the “% Inhibition @ 10 uM” value is -8.16%.

For `Cc1cc(C(=O)NCc2ccc(Cl)cc2)[nH]n1`, the “% Inhibition @ 10 uM” value came to 1.06%.

On to `Cc1ccc2onc(CC(=O)Nc3cccc(C)n3)c2c1`, for which the “% Inhibition @ 10 uM” value is -1.08%.

Take `N#Cc1c(NC(=O)CCc2ccccc2)sc2c1CCCC2`: the “% Inhibition @ 10 uM” value amounted to 15.5%.

Consider `CCOc1ccc(-c2nc3n(c(=O)c2C#N)CCS3)cc1`, for which the “% Inhibition @ 10 uM” value is recorded as -2.68%.

With `CCOCCCNC(=O)CCNS(=O)(=O)c1ccc(C)cc1`, the “% Inhibition @ 10 uM” value is recorded as -3.94%.

In the case of `CC(Sc1ccccc1)C(=O)NCc1ccco1` (stereo not drawn), the “% Inhibition @ 10 uM” value is given as -1.81%.

As to `CC(C)CC(=O)NC1(C(F)(F)F)N=C2SCCN2C1=O` (stereo not drawn), the “% Inhibition @ 10 uM” value is reported as -3.33%.

Take `COCCNc1nc(S)nc2cc(OC)c(OC)cc12`: the “% Inhibition @ 10 uM” value is reported as 0.708%.

Take `O=C1c2[nH]nc(-c3ccccc3O)c2C(c2ccc(O)cc2)N1Cc1ccc(F)cc1` (stereo not drawn): the “% Inhibition @ 10 uM” value is 1.67%.

As to `COc1ccccc1S(=O)(=O)Cc1ccc(C(=O)N2CCC(Cc3ccccc3)CC2)o1`, the “% Inhibition @ 10 uM” value was -4.96%.

On to `COc1ccc(C2C3=C(CC(C)(C)CC3=O)N(CC(=O)O)C3=C2C(=O)CC(C)(C)C3)cc1`, for which the “% Inhibition @ 10 uM” value is reported as -4.12%.

As to `Cc1ccc(-c2ccc(C3C(C#N)=C(N)OC4=C3C(=O)CC(C)(C)C4)o2)cc1` (stereo not drawn), the “% Inhibition @ 10 uM” value is reported as -0.864%.

Regarding `Cc1ccc(C2=NS(=O)(=O)N(C)C(C(=O)NCCCN3CCOCC3)=C2)cc1`, the “% Inhibition @ 10 uM” value came to 2.32%.

Consider `O=C(O)CCCCCNC(=O)/C(=C/c1ccc2c(c1)OCO2)NC(=O)c1ccco1`, for which the “% Inhibition @ 10 uM” value is on record as 7.1%.

For `CN1CCN(C(=O)Cn2ncc3c4ccccc4n(C)c3c2=O)CC1`, the “% Inhibition @ 10 uM” value stood at 1.41%.

As for `CCN(CC)C(=O)C1CC(c2cc(OC)c(OC)c(OC)c2)=NO1` (stereo not drawn), the “% Inhibition @ 10 uM” value is listed as -5.79%.

In the case of `CCC(=O)Nc1ccc(S(=O)(=O)N2CCC(C)CC2)cc1`, the “% Inhibition @ 10 uM” value is -0.413%.

On to `C=CCn1c2nc3ccccc3nc2c2cccc(C)c21`, for which the “% Inhibition @ 10 uM” value is given as -5%.

For `Cc1cc(NS(=O)(=O)c2ccc(NC(=O)C3c4ccccc4Oc4ccccc43)cc2)nc(C)n1`, the “% Inhibition @ 10 uM” value is given as -0.996%.

As for `Cc1ccc(-n2nc3c(N4CCC(C(=O)N5CCOCC5)CC4)nnc(C)c3c2C)cc1`, the “% Inhibition @ 10 uM” value turned out to be 5.2%.

For `O=C(CN1C(=O)S/C(=C\c2ccc(F)cc2)C1=O)Nc1ncc(Cc2ccccc2Cl)s1`, the “% Inhibition @ 10 uM” value amounted to 5.7%.

`CC1=C(C(=O)Nc2ccccn2)C(c2cccnc2)n2nnnc2N1` (stereo not drawn): the “% Inhibition @ 10 uM” value was 1.84%.

As for `Clc1ccc(C2NCCc3c2[nH]c2ccccc32)cc1Cl` (stereo not drawn), the “% Inhibition @ 10 uM” value is reported as 1.66%.

Take `Cc1ccc(/C=C/C(=O)O)cc1S(=O)(=O)NCCCO`: the “% Inhibition @ 10 uM” value stood at 21.7%.

For `Cc1cc(=O)n2nc(N3CCC(C(=O)N4CCC5(CC4)OCCO5)CC3)sc2n1`, the “% Inhibition @ 10 uM” value turned out to be 3.3%.

Turning to `CC(C)CC(NC(=O)c1ccc(NC(=O)N(C)C)cc1)C(=O)NCC#N` (stereo not drawn), the “% Inhibition @ 10 uM” value is -9.15%.

As to `Cc1nn(-c2ccccc2)c(S)c1/C=N/c1ccc([N+](=O)[O-])cc1`, the “% Inhibition @ 10 uM” value is listed as 23.3%.

With `CC1CCC(C(C)C)C(OCC(O)CN2C(C)CCCC2C)C1` (stereo not drawn), the “% Inhibition @ 10 uM” value is listed as 2.16%.

As to `CC1=C(C(=O)Nc2cccc(C)c2C)C(c2ccc(Cl)cc2Cl)NC(=O)N1` (stereo not drawn), the “% Inhibition @ 10 uM” value is reported as -14.2%.

Take `Cc1cc(C)cc(NC(=O)COc2ccc(Cl)cc2Cl)c1`: the “% Inhibition @ 10 uM” value is -3.44%.

For the molecule `CC(C)C[C@H](NC(=O)c1ccc(N2CCOCC2)cc1)C(=O)NC1(C#N)CCOCC1`, the “% Inhibition @ 10 uM” value is given as 13.6%.

Regarding `Cc1ccc(N2C(=O)C3ON=C(C(=O)c4ccc(Cl)cc4)C3C2=O)cc1` (stereo not drawn), the “% Inhibition @ 10 uM” value is listed as -0.303%.
